# Test results as given in the supplement of paper PMC9174493.
# The other results are listed elsewhere or left out. Single values of this set are uncertain. Values with irradiation are relative to irradiated vehicle.
# Experiments:
# A549-Dual [1] = test: NF-kB reporter (SEAP) activity, viability-corrected, relative to vehicle (fold change vs vehicle); higher = more activation of STING-IRF / NF-kB immune response reporter
# A549-Dual [2] = test: ISRE reporter (Lucia luciferase) activity, viability-corrected, relative to vehicle (fold change vs vehicle); higher = more activation of STING-IRF / NF-kB immune response reporter
# 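Throughout, for NF-kB reporter (SEAP) activity, viability-corrected, relative to vehicle: viability correction based on the alamar blue assay, with concentrations leaving 10% survival or less dropped.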
SMILES,"NF-kB reporter (A549-Dual [1]; 0.1 µM, irradiation: 8 Gy/4 fr)","NF-kB reporter (A549-Dual [1]; 0.1 µM, irradiation: none)","NF-kB reporter (A549-Dual [1]; 0.3 µM, irradiation: 8 Gy/4 fr)","NF-kB reporter (A549-Dual [1]; 0.3 µM, irradiation: none)","NF-kB reporter (A549-Dual [1]; 1 µM, irradiation: 8 Gy/4 fr)","NF-kB reporter (A549-Dual [1]; 1 µM, irradiation: none)","NF-kB reporter (A549-Dual [1]; 3 µM, irradiation: 8 Gy/4 fr)","NF-kB reporter (A549-Dual [1]; 3 µM, irradiation: none)","NF-kB reporter (A549-Dual [1]; 10 µM, irradiation: 8 Gy/4 fr)","NF-kB reporter (A549-Dual [1]; 10 µM, irradiation: none)","ISRE reporter (A549-Dual [2]; 0.1 µM, irradiation: 8 Gy/4 fr)","ISRE reporter (A549-Dual [2]; 0.1 µM, irradiation: none)","ISRE reporter (A549-Dual [2]; 0.3 µM, irradiation: 8 Gy/4 fr)","ISRE reporter (A549-Dual [2]; 0.3 µM, irradiation: none)","ISRE reporter (A549-Dual [2]; 1 µM, irradiation: 8 Gy/4 fr)","ISRE reporter (A549-Dual [2]; 1 µM, irradiation: none)","ISRE reporter (A549-Dual [2]; 3 µM, irradiation: 8 Gy/4 fr)","ISRE reporter (A549-Dual [2]; 3 µM, irradiation: none)","ISRE reporter (A549-Dual [2]; 10 µM, irradiation: 8 Gy/4 fr)","ISRE reporter (A549-Dual [2]; 10 µM, irradiation: none)"
CC1(C(=O)O)CCC2(C)CCC3(C)C(=CC(=O)C4C5(C)CCC(OC6OC(C(=O)O)C(O)C(O)C6OC6OC(C(=O)O)C(O)C(O)C6O)C(C)(C)C5CCC43C)C2C1.N (stereo not given) [Ammonium Glycyrrhizinate],0.735,1.05,0.785,0.985,1.07,0.977,1.17,1.06,0.812,0.833,0.814,1.03,0.703,0.843,0.772,0.886,0.96,1.07,0.734,0.702
COC1CC2CCC(C)C(O)(O2)C(=O)C(=O)N2CCCCC2C(=O)OC(C(C)CC2CCC(OC(=O)C(C)(CO)CO)C(OC)C2)CC(=O)C(C)/C=C(\C)C(O)C(OC)C(=O)C(C)CC(C)/C=C/C=C/C=C/1C (stereo not given),0.952,1.19,0.937,1.29,0.865,0.934,0.924,0.972,1.18,0.778,0.611,1.24,0.697,1.18,0.628,1,0.597,1.05,0.531,1.06
Nc1ccn(C2OC(CO)C(O)C2(F)F)c(=O)n1 (stereo not given) [Gemcitabine],1.37,2.75,1.35,2.83,1.23,2.64,1.34,2.83,1.27,2.13,0.542,2.89,0.481,2.6,0.427,2.49,0.337,2.17,0.399,1.6
CC(=O)OCC(CCn1cnc2cnc(N)nc21)COC(C)=O [Famciclovir],1.07,1.03,0.933,0.936,0.908,1.15,0.857,0.942,0.978,0.92,0.98,0.908,0.924,0.877,0.864,0.896,0.881,0.675,1.05,0.939
CC(C)(C)c1nc(-c2cccc(NS(=O)(=O)c3c(F)cccc3F)c2F)c(-c2ccnc(N)n2)s1,0.621,0.788,0.499,0.726,0.548,1.23,0.642,1.2,0.57,1.06,0.429,0.95,0.169,0.456,0.177,0.432,0.214,0.389,0.195,0.421
O=C(O)c1ccccc1OP(=O)(O)O [Fosfosal],1.04,1.01,0.941,0.804,1.03,0.83,1.13,0.811,0.847,1.01,1.04,0.867,0.991,0.727,0.718,0.583,0.713,0.834,0.795,0.844
CCN1CCN(Cc2ccc(Nc3ncc(F)c(-c4cc(F)c5nc(C)n(C(C)C)c5c4)n3)nc2)CC1 [Abemaciclib],0.938,1.14,0.925,1.11,0.871,1.49,0.817,1.27,0.768,1.23,0.913,1.3,0.94,1.3,0.866,1.3,0.612,1.15,0.892,2.19
c1cc(CN2CCCNCCNCCCNCC2)ccc1CN1CCCNCCNCCCNCC1 [Plerixafor (AMD3100)],1.36,0.968,1.31,1,0.796,0.909,1.03,0.938,1.05,1.45,1.1,1.27,1.08,1.04,1.23,1.07,1.2,1.21,1.05,0.954
O=c1c(O)c(-c2ccc(O)c(O)c2)oc2cc(O)cc(O)c12 [Quercetin],1.24,2.46,1.51,2.48,2.22,1.49,2.26,1.57,1.53,1.34,1.3,1.89,1.23,1.79,1.52,1.2,1.18,0.931,0.629,0.879
Cc1nnc(C(=O)NC(C)(C)c2nc(C(=O)NCc3ccc(F)cc3)c(O)c(=O)n2C)o1 [Raltegravir (MK-0518)],1.13,1.5,1.36,1.55,1.31,1.23,1.67,1.31,0.872,0.51,1.19,1.37,1.05,1.27,1.14,1.14,0.914,1.03,0.978,0.874
O=C(O)c1cc(O)c(O)c(O)c1 [Gallic acid],1.05,1.09,1,0.999,1.07,1.47,0.951,1.3,1.08,1.16,1.16,1.25,1.18,1.12,1.17,0.998,1.15,0.939,1.08,1.14
Nc1ncn(C2OC(CO)C(O)C2O)c(=O)n1 (stereo not given) [Azacitidine],0.95,1.27,1.02,1.12,0.843,1.06,0.513,0.647,0.505,0.514,0.927,1.4,1.21,1.67,0.865,2.07,0.351,1.16,0.323,0.496
CN1C2=CC(=O)/C(=N\NC(N)=O)C=C2CC1S(=O)(=O)[O-].[Na+] (stereo not given) [Carbazochrome sodium sulfonate (AC-17)],1.23,1.27,1.04,1.43,1.11,1.61,1.15,1.26,1.1,0.997,1.09,1.23,1.17,1.14,1.05,1.27,1.19,0.847,1.17,0.941
Nc1nc(N)c2nc(-c3ccccc3)c(N)nc2n1 [Triamterene],0.994,0.952,1.2,0.903,1.15,0.838,1.34,0.91,0.723,1.45,1.05,0.877,1.03,0.869,0.809,0.845,0.806,0.985,0.106,0.646
COc1cc(CNC(=O)CCCC/C=C\C(C)C)ccc1O [Zucapsaicin],1.17,1.67,1.34,1.49,1.37,1.14,1.85,1.23,1,0.805,1.12,1.47,1.09,1.21,1.17,0.902,1.01,0.96,1.07,0.94
Cc1cc(Nc2ncc(Cl)c(Nc3ccccc3S(=O)(=O)C(C)C)n2)c(OC(C)C)cc1C1CCNCC1 [Ceritinib (LDK378)],0.936,1.06,0.859,0.931,0.974,0.906,0.898,0.927,0.997,0.853,0.976,1.09,1.06,0.92,1.08,1.07,1.1,0.902,1.22,1.19
Nc1nc(=O)c2c(CCc3ccc(C(=O)NC(CCC(=O)[O-])C(=O)[O-])cc3)c[nH]c2[nH]1.[Na+].[Na+] (stereo not given) [Pemetrexed],1.22,1.52,1.27,1.78,1.27,2.14,1.3,1.66,1.11,1.36,1.28,2.69,0.981,3.05,1.26,3.2,0.999,2.3,0.794,2.21
CC(C)C1CCC(C(=O)NC(Cc2ccccc2)C(=O)O)CC1 (stereo not given) [Nateglinide],1.08,1.75,1.21,1.41,1.21,1.03,1.83,1.09,1.02,1.58,1.04,1.28,1.07,1.21,1.15,0.961,0.928,1.03,0.945,0.892
CC12C=CC(=O)C=C1CCC1C2C(=O)CC2(C)C1CCC2(O)C(=O)CO (stereo not given) [Prednisone],0.924,1.15,1.1,1.1,1.06,1.06,1.3,1.02,0.663,0.984,0.877,0.963,0.86,0.957,0.82,0.846,0.786,0.708,0.483,0.659
S=P(N1CC1)(N1CC1)N1CC1 [Thiotepa],0.814,1.18,0.881,1.17,0.729,0.879,0.774,0.957,0.826,1.03,0.829,1.07,1.06,1.24,0.727,1.13,0.618,1.8,0.642,1.94
CS(=O)(=O)Nc1cc2occ(NC=O)c(=O)c2cc1Oc1ccccc1 [Iguratimod],1.09,1.62,1.18,1.38,1.11,1.19,1.14,1.23,0.653,0.742,0.927,1.36,0.926,0.811,0.623,0.796,0.487,0.602,0.326,0.525
O=C(O)c1ccccc1O.[NaH] [Sodium salicylate],0.833,1.11,0.849,1.39,1.12,0.846,0.932,0.966,0.882,0.864,0.946,0.857,0.78,0.872,0.774,0.832,0.79,0.928,0.852,0.876
COc1cc2ncnc(Nc3ccc(F)c(Cl)c3)c2cc1NC(=O)/C=C/CN1CCCCC1,1.05,1.04,0.978,1.1,0.996,1.29,1.21,1.09,0.982,0.985,0.953,0.86,0.999,0.874,1.05,0.807,0.967,0.889,1.03,1.04
Nc1nc(Cl)nc2c1ncn2C1OC(CO)C(O)C1F (stereo not given) [Clofarabine],0.935,0.904,1.14,1.63,1.47,2.91,2.82,3.25,2.23,2.42,0.981,0.976,0.691,2.77,0.451,3.27,0.7,3.36,0.546,2.13
